# Where “and” joins values, the source holds several entries; their conditions need not be identical. Equal entries are not always repeated. Out of some 410,000 compounds screened, about 490 (0.12%) were called active. The shares of active, inactive and inconclusive entries below differ from those in the screen. Calls follow the shape of the dose curve; as a rule, active = well fitted inhibition curve with a large enough effect; inconclusive = small, poorly fitted or top-dose-only effect; inactive = flat fitted curve, though single readings scatter. Where the call is inconclusive, the potency comes from a doubtful curve fit.
# Target: pyruvate kinase (Trypanosoma brucei) (UniProt Q57TT1)
# Experiment: qHTS of Trypanosoma Brucei Inhibitors; also: nearly all actives have a fitted effect of over 50% in size
# Conditions: TbPYK enzyme, Kinase-Glo Plus ATP luminescence, 45 min; series mostly up to 76.8 µM
# In short: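 Screened from lowest to highest concentration, compounds were pinned into TbPYK/substrate mixtures, and ADP (130 uM final) was added. Plates sat at room temperature for 45 min prior to Kinase-Glo Plus detection by luminescence.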
# Potency is read from the fitted curve at half-maximal effect; tags tell the direction and shape of the fitted curve.
row,SMILES,Potency
1,COc1ccc(OCCC(=O)OCC(=O)NCc2ccco2)cc1,"inconclusive: 25.1 µM [inhibitor, partial curve, poor fit]"
2,O=C(CN1CCCCCCC1)N/N=C/c1ccc(F)c(F)c1,inactive
3,COc1cc(SC)ccc1C(=O)Nc1nc2ccccc2[nH]1,"inconclusive: 14.1 µM [inhibitor, partial curve, poor fit]"
4,CCC(=O)N1CCc2cc(Br)cc(S(=O)(=O)N3CCCC(C(=O)Nc4ccc(OC)cc4OC)C3)c21 (configuration not stated),inactive
5,O=C(c1cccc(S(=O)(=O)N2CCc3ccccc3C2)c1)N1CCN(c2ccc(O)cc2)CC1,"inconclusive: 14.1 µM [inhibitor, partial curve]"
6,Cc1cc(C)c2c(=O)n(CC(=O)Nc3cccc(Cl)c3C)sc2n1,"inconclusive: 5.01 µM [inhibitor, full curve, poor fit]"
7,CN(C)C(=S)Nc1nc2ccccc2s1,"inconclusive: 14.1 µM [inhibitor, partial curve, poor fit]"
8,O=C1C(=Cc2ccc(Cl)cc2)CCc2ccccc21,"inconclusive: 31.6 µM [inhibitor, partial curve]"
9,Cc1nnc(N2CCN(c3cccc(C(F)(F)F)c3)CC2)c2c1nnn2Cc1ccccc1,inactive
10,O=C(N/N=C/c1cccnc1)c1ccc([N+](=O)[O-])cc1,inactive
11,O=C(Nc1nc(-c2ccco2)c(-c2ccco2)s1)C1CC(=O)N(c2ccc3c(c2)OCCO3)C1 (configuration not stated),"inconclusive: 22.4 µM [inhibitor, partial curve]"
12,OCC[N+]12CCC(CC1)C(C(O)(c1ccccc1)c1ccccc1)C2 (configuration not stated),"inconclusive: 35.5 µM [inhibitor, partial curve, poor fit]"
13,Cc1ccc(NC(=O)CCCn2c(=S)[nH]c3ccsc3c2=O)cc1C,"inconclusive: 10 µM [inhibitor, partial curve, poor fit]"
14,Cc1ccc(C)c(NCc2n[nH]c(=S)n2-c2ccccc2)c1,"inconclusive: 3.16 µM [inhibitor, partial curve]"
15,C[CH2][Hg][S]c1ccccc1C(=O)O,active: 5.62 µM and active: 11.2 µM
16,COc1ccc(NC(=O)c2c(NCc3cccs3)sc3c2CCCCC3)c(OC)c1,"inconclusive: 25.1 µM [inhibitor, partial curve, poor fit]"
17,Clc1ccc2nc(-c3ccco3)c(Cc3ccsc3)n2c1,"inconclusive: 35.5 µM [inhibitor, single point]"
18,COc1ccc(N(CC(=O)NCCSC(C)(C)C)S(C)(=O)=O)c(OC)c1,"inconclusive: 31.6 µM [inhibitor, partial curve, poor fit]"
19,COc1ccc(-c2nc3ccccc3s2)cc1,"inconclusive: 39.8 µM [inhibitor, single point]"
20,Cn1c(CSCc2ccc(Cl)c(Cl)c2)n[nH]c1=S,"inconclusive: 6.31 µM [inhibitor, partial curve, poor fit]"
21,CCS(=O)(=O)N1CCC(C(=O)Nc2ccc3c(c2)CCC3)CC1,inactive
22,CCCC/C(O)=C1\C(=O)CC(C)(C)CC1=NCCCCCC(=O)O,inactive
23,NC(=O)c1c(N)sc2c1CCCCC2,"inconclusive: 35.5 µM [inhibitor, partial curve, poor fit]"
24,Cc1ccc(C(=O)/C=C\C(=O)c2ccc(C)cc2)cc1,"inconclusive: 25.1 µM [inhibitor, partial curve, poor fit]"

row,SMILES,Potency
1,COc1ccc(C(=O)NNC(=O)c2ccccn2)cc1,"inconclusive: 14.1 µM [inhibitor, partial curve, poor fit]"
2,O=C(NCc1n[nH]c(=S)n1-c1ccc(Br)cc1)c1ccc(S(=O)(=O)N2CCOCC2)cc1,"inconclusive: 17.8 µM [inhibitor, partial curve, poor fit]"
3,Cc1ccc(/C=C2\C(=O)NC(=S)N(c3ccccc3F)C2=O)s1,active: 31.6 µM
4,Cc1ccnc2nc(C(=O)OCC(=O)N3CCc4ccccc43)nn12,inactive
5,COc1cc(C2C3=C(Nc4nc(N)[nH]c(=O)c42)c2ccccc2C3=O)ccc1O (configuration not stated),"inconclusive: 35.5 µM [inhibitor, partial curve, poor fit]"
6,Cc1ccc(NC(=O)/C(=C/c2ccco2)c2ccccc2)c(C)c1,inactive
7,Cc1nc(NC(=O)c2ccco2)sc1C(=O)O,active: 25.1 µM
8,Cc1ccc(CNC(=O)Cn2ccn(-c3ccc(F)c(F)c3)c(=O)c2=O)cc1,inactive
9,Cc1ccccc1OCc1n[nH]c(=S)n1-c1cccc(Cl)c1,"inconclusive: 12.6 µM [inhibitor, partial curve]"
10,Cn1nc(Oc2nc(N3CCOCC3)nc(N3CCOCC3)n2)ccc1=O,"inconclusive: 50.1 µM [inhibitor, single point]"
11,S=C(NCc1ccccc1)NNc1nc2ccccc2[nH]1,"inconclusive: 15.8 µM [inhibitor, partial curve, poor fit]"
12,Cc1cccc(CSc2ncc(Cl)c(C(=O)Nc3nnc(C)s3)n2)c1,inactive
13,O=C(Nc1cc(Cl)ccc1Cl)N1CCCC1,"inconclusive: 35.5 µM [inhibitor, partial curve, poor fit]"
14,Cc1nc(-c2ccc(F)cc2)sc1CCNC(=O)c1ccccc1C(F)(F)F,inactive
15,CCOC(=O)c1ccc(N2C(=O)c3n[nH]c(-c4ccco4)c3C2c2cccc([N+](=O)[O-])c2)cc1 (configuration not stated),inactive
16,Cc1c(Cl)cccc1-n1c(-c2cccnc2)n[nH]c1=S,active: 7.08 µM
17,CCOC(=O)C(NC(=O)c1ccccc1F)(Nc1cc(C)on1)C(F)(F)F (configuration not stated),"inconclusive: 50.1 µM [inhibitor, single point]"
18,COc1cccc(CN2C(=O)c3ccccc3C2C(=O)NCCc2ccccc2)c1 (configuration not stated),inactive
19,COc1ccccc1C=CC(=O)C=Cc1ccccc1OC,inactive
20,Cc1ccc2cc(/C=C/C(=O)c3ccco3)c(Cl)nc2c1,inactive
21,Cn1c(-c2sccc2OCc2ccccc2)n[nH]c1=S,"inconclusive: 22.4 µM [inhibitor, partial curve]"
22,CCOC(=O)c1c2c([nH]c(=S)c1C#N)CCCC2,"inconclusive: 25.1 µM [inhibitor, partial curve, poor fit]"
23,Cc1ccc(S(=O)(=O)NCC(=O)OCN2C(=O)c3ccccc3C2=O)cc1,"inconclusive: 28.2 µM [inhibitor, single point]"
24,Cc1ccccc1CSc1nc2c([nH]c3ccccc32)c(=O)n1-c1ccccc1,inactive

row,SMILES,Potency
1,COC(=O)CCCC(=O)N1CCOCCN(C(=O)CCCC(=O)OC)CCOCC1,inactive
2,O=C(Nc1nc(-c2ccccc2)ns1)c1ccncc1,"inconclusive: 31.6 µM [inhibitor, single point]"
3,Clc1ccc(-c2nnc(CCc3ccccc3)o2)c(Cl)c1,inactive
4,CC1=C(C(=O)Nc2ccccc2)C2(CCCCC2)C(C#N)=C(SCC(N)=O)N1,"inconclusive: 50.1 µM [inhibitor, single point]"
5,C=CCOc1c(Cl)cc(CNn2cn[nH]c2=S)cc1OC,"inconclusive: 5.62 µM [inhibitor, partial curve, poor fit]"
6,COCCNC(=S)Nc1ccc(N2CCOCC2)c(S(=O)(=O)Nc2ccc(Cl)cc2)c1,"inconclusive: 11.2 µM [inhibitor, partial curve, poor fit]"
7,Cc1cccc2nc(CSc3nnc4ccccn34)cn12,inactive
8,CC(=O)Nc1ccc(NC(=O)COC(=O)C2(c3ccc(Cl)cc3)CCCC2)cc1,inactive
9,COc1ccc(CCNC(=O)COC(=O)c2ccco2)cc1OC,"inconclusive: 44.7 µM [inhibitor, single point]"
10,C=CCn1c(-c2cccn(Cc3ccc(Cl)cc3)c2=O)n[nH]c1=S,"inconclusive: 7.08 µM [inhibitor, partial curve]"
11,NC(=O)CN1C(=O)/C(=c2\sc3nc(=O)c(Cc4ccccc4)nn3c2=O)c2ccccc21,"inconclusive: 28.2 µM [inhibitor, partial curve]"
12,Cc1ccc(-n2c(Cc3ccccc3)n[nH]c2=S)c(C)c1,active: 10 µM
13,S=C(NCCc1ccccc1)N1CCN(C(=S)NCCc2ccccc2)CC1,inactive
14,COc1cccc(CNc2sc3c(c2C(=O)Nc2ccc(OC)cc2OC)CCC3)c1,"inconclusive: 31.6 µM [inhibitor, single point]"
15,O=C(NC1CCCCC1)Oc1cc2oc(=O)sc2cc1Br,"inconclusive: 31.6 µM [inhibitor, partial curve, poor fit]"
16,CCOC(=O)C1CCCN(CCC(=O)Nc2ccc(Br)c(C)c2)C1 (configuration not stated),inactive
17,Cc1ccc(/C=C2\SC(=S)N(/N=C/c3cc([N+](=O)[O-])ccc3O)C2=O)o1,"inconclusive: 17.8 µM [inhibitor, partial curve, poor fit]"
18,COc1ccc(CC(=O)NCc2n[nH]c(=S)n2-c2ccc(F)cc2)cc1,"inconclusive: 12.6 µM [inhibitor, partial curve, poor fit]"
19,COc1ccc2cc(C(=O)Nc3ccc(S(N)(=O)=O)cc3)sc(=O)c2c1OC,inactive
20,Clc1cccc(Cl)c1CNc1ccc(N2CCCC2)cc1,"inconclusive: 1.41 µM [inhibitor, full curve, poor fit]"
21,O=C(O)c1cc(S(=O)(=O)Nc2ccc3oc(=O)sc3c2)ccc1O,"inconclusive: 25.1 µM [inhibitor, partial curve]"
22,CSc1ccc(-c2nnn(CC(=O)NCc3ccccc3)n2)cc1,inactive
23,O=[N+]([O-])c1ccc(O)c(C=NNc2ccc(S(=O)(=O)O)cc2)c1,inactive
24,CN(C)S(=O)(=O)c1cccc(NC(=S)N/N=C/c2cc(Br)ccc2O)c1,inactive

# From PubChem BioAssay AID624173 (National Center for Advancing Translational Sciences (NCATS), 2012)
